Source: ChEMBL document CHEMBL4888484, “Replenishing the malaria drug discovery pipeline: Screening and hit evaluation of the MMV Hit Generation Library 1 (HGL1) against asexual blood stage Plasmodium falciparum ,using a nano luciferase reporter read-out” (2022)
Screen size: about 150,000 compounds; about 540 (0.36%) showed an effect of 50% or more. This is one part of the list.

These compounds were tested on Plasmodium falciparum (assay: Primary screen in NF54 nanoGlo assay, in single point, at 2uM, 72h; a lower Z score goes with more inhibition). Conditions: timepoint 72 hour.
Type: functional, Erythrocyte

Row | Structure (SMILES) | % Inhibition | Z score
1 | Cc1c(CC(=O)N[C@H]2CCNC2)c2c(n1Cc1ccccc1F)CCCC2=O | -8% | 1.67
2 | Brc1ccc2c(c1)NCCCC2 | -6% | 0.91
3 | Nc1c(C(=O)Nc2ccc3c(c2)OCO3)sc2ncccc12 | -13% | 1.32
4 | Cn1nc2c(c1C(=O)NC[C@](C)(O)c1cccc(F)c1)CS(=O)(=O)CC2 | -12% | 1.8
5 | Cc1ncc(CO)c2c1OC(C)(C)OC2 | 1% | -0.16
6 | NS(=O)(=O)c1ccc(CCNc2nc(C3CCCCC3)nc3ccccc23)cc1 | -41% | 4.79
7 | CCCNC(=O)CCc1c(-c2ccc(Cl)cc2)nc2ccc(-c3cccc(C)c3)cn12 | -26% | 2.57
8 | CC(C)c1nnc(NCCN2CCC[C@H](CO)C2)s1 | 7% | -0.89
9 | COc1ccc(CC(=O)N2N=C(C)C[C@]2(O)c2cccnc2)cc1 | 46% | -4.92
10 | COc1ccc(OC)c(S(=O)(=O)N2CCCCCCNC(=O)[C@@H]3CCC[C@@H]32)c1 | -7% | 0.87
11 | Cc1cccc(C)c1NC(=O)c1csc(-c2ccnc(N3CCOCC3)c2)n1 | -1% | 0.17
12 | Cc1onc(NC(=O)NCC(F)F)c1C | -10% | 0.98
13 | O=C(Cc1ccccc1)Nc1ccc(NC(=O)C(c2ccccc2)c2ccccc2)cc1 | -2% | 0.46
14 | c1nc2ccc(-c3nc([C@H]4CCOC4)no3)cc2s1 | 9% | -1.55
15 | CC(C)Nc1ccccc1C(=O)N1CCN2CCN(C)C[C@H]2C1 | -6% | 0.88
16 | CC(=O)N(c1cccc(C)c1)[C@H]1CCS(=O)(=O)C1 | 1% | -0.15
17 | COCC(C)(C)N(C)C(=O)c1coc(C2CCOCC2)n1 | -5% | 0.8
18 | CCCN(CC1CCCO1)C(=O)CC1(c2cccc(F)c2)CC(=O)N(C)C1=O (stereo unspecified) | 0% | 0.01
19 | Cc1nccc(C2CCN(C(=O)c3cn4c5c(cccc5c3=O)CC4)CC2)n1 | -4% | 0.53
20 | CN(C)c1nccc(CNS(=O)(=O)c2ccc3c(c2)CC(C)(C)O3)n1 | -9% | 1.11
21 | CCOc1cccnc1C(=O)N1CCN(c2cccc(C)n2)C[C@@H]1C | -17% | 2.26
22 | CCCOc1cccc(Cn2ccn3c(=O)cc(C)nc23)c1 | -9% | 1

Row | Structure (SMILES) | % Inhibition | Z score
23 | O=C1CCCN1c1ccc(Cn2nc3ccc(-c4ccc(Cl)cc4)nn3c2=O)cc1 | -1% | 0.15
24 | N#Cc1c[nH]c(C(=O)N[C@H]2CCOC[C@@H]2O)c1 | -17% | 3.15
25 | CCOC(=O)c1cnn(-c2nc(-c3ccccc3)cs2)c1CN(C)C[C@H]1COCCO1 | -9% | 1.28
26 | O=C(Cc1cccs1)N1CCC[C@H](OCc2nc(C3CC3)no2)C1 | -5% | 0.59
27 | C[C@H](O)c1ccc(-c2ccc(CNCCc3c[nH]c4ccccc34)o2)cc1 | -13% | 1.54
28 | O=C(Nc1cccc(N2CCCC2=O)c1)c1nccnc1-c1nc2ccccc2s1 | -6% | 0.8
29 | CC(C)NC(=O)CNC(=O)c1ccc(Br)cc1 | 6% | -1
30 | CCC1=C(c2ccc(C)cc2)S(=O)(=O)N=C1N1CCC(C(=O)N[C@@H](C)CC)CC1 | 1% | -0.22
31 | CC1CC(C)C2N(C1)c1ccccc1CC21C(=O)CC(C)(C)CC1=O (stereo unspecified) | -10% | 1.94
32 | Cn1cnc(C=Cc2ccncc2C#N)c1 | -19% | 2.07
33 | COCC(=O)N1CC(Oc2nc3ccccc3s2)C1 | 5% | -0.51
34 | O=C(C1CC1c1ccc(Cl)cc1Cl)N1CC(O)CC1CO (stereo unspecified) | -13% | 1.8
35 | C[C@H]1OCCN(C(=O)c2ccc(N(C)C)nc2)[C@@H]1C(N)=O | -4% | 0.77
36 | CN(C)C(=O)c1nc2ccc(Cl)cn2c1-c1ncc[nH]1 | 13% | -1.86
37 | CC(CO)N(C)C(=O)NCC1CC1c1ccc(Cl)cc1Cl (stereo unspecified) | -6% | 0.59
38 | CCCC(=O)Nc1ccc(-n2ccnc2-c2[nH]cnc2C)cc1OC | 10% | -1.25
39 | Cc1cc(C(=O)N2CCC(F)(C(=O)NCc3ccccc3)CC2)n(C)n1 | 9% | -1.11
40 | COc1nn(C)cc1C(=O)Nc1ccc(Cl)c(N2CCCS2(=O)=O)c1 | -19% | 2.75
41 | CN(C(=O)CC(F)(F)F)[C@@H]1COC[C@H]1O | 8% | -1
42 | COc1ccc2c(CNC3CCC(C)CC3)c(C(=O)O)[nH]c2c1 (stereo unspecified) | -13% | 1.28
43 | COc1ccccc1NC(=O)c1cnn(-c2cc(-c3nc(C(C)C)no3)ccn2)c1C | -5% | 0.72
